In all, about 350,000 compounds went through this assay and about 31,000 (8.9%) were called active. Inconclusive means that the source gave no clear call. Such entries were picked first, then a sample of the others. Calls follow the shape of the dose curve; as a rule, active = well fitted inhibition curve with a large enough effect; inconclusive = small, poorly fitted or top-dose-only effect; inactive = no such curve, though single readings can be large or run the other way. Potencies beside an inconclusive call are fits to weak or partial responses and may not hold up.
What follows are compounds tested against Histone-lysine N-methyltransferase EHMT2 (Homo sapiens) (UniProt Q96KQ7) (assay: qHTS Assay for Inhibitors of Histone Lysine Methyltransferase G9a). Settings: G9a H3K9 monomethylation, AlphaScreen, 2 h; activity, negative = inhibition: at 59 µM (top of the series) unless noted.
Method in brief: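 G9a (20 nM) preincubated 15 min RT with compounds, then 500 nM biotinylated H3K9 peptide and 20 uM SAM added; 2 h RT reaction. Monomethyl-H3K9 product detected by AlphaScreen with anti-H3K9me1 antibody, streptavidin donor and anti-rabbit IgG acceptor beads.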
% is scaled to controls: 0 for no effect and ±100 for the full control effect; potency is read from the fitted curve at half-maximal effect; tags tell the direction and shape of the fitted curve.
Also: nearly all actives have a fitted effect of over 75% in size.

Sequence of UniProt Q96KQ7 (Q96KQ7 whole entry, looked up): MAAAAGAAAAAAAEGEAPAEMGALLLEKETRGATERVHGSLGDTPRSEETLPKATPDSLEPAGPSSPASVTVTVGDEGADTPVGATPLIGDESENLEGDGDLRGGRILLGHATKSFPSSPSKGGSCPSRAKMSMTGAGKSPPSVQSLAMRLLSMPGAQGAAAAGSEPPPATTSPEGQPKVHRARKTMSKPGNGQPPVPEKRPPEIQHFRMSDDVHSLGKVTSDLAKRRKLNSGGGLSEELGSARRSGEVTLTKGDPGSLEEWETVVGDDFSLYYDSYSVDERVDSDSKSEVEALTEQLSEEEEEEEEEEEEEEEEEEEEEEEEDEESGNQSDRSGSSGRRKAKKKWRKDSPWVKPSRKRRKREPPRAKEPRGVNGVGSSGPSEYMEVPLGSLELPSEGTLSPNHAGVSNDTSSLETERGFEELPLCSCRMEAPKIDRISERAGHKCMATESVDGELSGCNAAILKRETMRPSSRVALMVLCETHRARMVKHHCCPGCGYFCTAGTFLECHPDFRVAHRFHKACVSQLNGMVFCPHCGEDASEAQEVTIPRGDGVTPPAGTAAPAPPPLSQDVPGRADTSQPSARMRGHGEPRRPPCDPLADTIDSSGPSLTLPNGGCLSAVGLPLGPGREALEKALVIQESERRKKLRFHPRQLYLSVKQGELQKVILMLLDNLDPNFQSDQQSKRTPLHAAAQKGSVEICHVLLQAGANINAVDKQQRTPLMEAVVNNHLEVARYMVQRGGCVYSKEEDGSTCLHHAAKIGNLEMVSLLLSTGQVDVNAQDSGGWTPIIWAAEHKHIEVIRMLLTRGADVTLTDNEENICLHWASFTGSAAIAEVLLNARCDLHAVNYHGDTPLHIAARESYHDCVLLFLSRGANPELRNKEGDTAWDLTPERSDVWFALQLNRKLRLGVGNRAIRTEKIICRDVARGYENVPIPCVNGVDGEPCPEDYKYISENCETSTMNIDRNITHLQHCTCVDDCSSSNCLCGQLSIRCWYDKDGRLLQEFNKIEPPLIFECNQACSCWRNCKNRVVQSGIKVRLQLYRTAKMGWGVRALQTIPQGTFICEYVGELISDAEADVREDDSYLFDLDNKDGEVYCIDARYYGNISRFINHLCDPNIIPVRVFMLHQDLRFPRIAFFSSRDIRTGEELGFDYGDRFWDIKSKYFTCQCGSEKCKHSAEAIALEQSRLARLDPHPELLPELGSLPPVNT

Row | SMILES | Potency | activity, negative = inhibition
1 | C[C@H](NS(=O)(=O)OCC(Cl)(Cl)Cl)C1CC1c1ccccc1 (some centres not stated) | inconclusive: 89.1 µM [inhibitor, single point] | 
2 | O=C(Nc1cccnc1)Nc1ccc(Cl)cc1Cl | active: 50.1 µM | 
3 | Nc1c(-c2nc(-c3ccccc3)no2)nnn1CC(=O)Nc1ccccc1 | inconclusive: 10 µM [inhibitor, partial curve, poor fit] | 
4 | COc1ccccc1CNC(=O)Cn1ncc2c(C)n(Cc3ccccc3Cl)c(C)c2c1=O |  | inactive: -0.931%
5 | Cc1ccc(S(=O)(=O)N2CCN(C(=O)c3cc(=O)c4ccccc4o3)CC2)cc1 | inconclusive: 89.1 µM [inhibitor, single point] | 
6 | O=C(COC(=O)c1cc([N+](=O)[O-])ccc1NCCO)Nc1cccc(S(=O)(=O)N2CCCC2)c1 | active: 44.7 µM | 
7 | Cc1ccc(-c2ccc(CCC(=O)O)n2-c2ccc(C(C)C)cc2)cc1 | active: 15.8 µM | 
8 | Cc1ccc(NC(=S)N/N=C2/CCCc3c(C)cc(C)cc32)cc1 | inconclusive: 39.8 µM [inhibitor, partial curve, poor fit] | 
9 | COc1cccc(NC(=O)Cc2csc(NC(=O)Nc3ccccc3OC)n2)c1 | inconclusive: 50.1 µM [inhibitor, partial curve] | 
10 | O=C(COC(=O)CC1CC2CCC1C2)NC(=O)NCc1ccco1 (configuration not stated) | inconclusive: 22.4 µM [inhibitor, partial curve, poor fit] | 
11 | Cc1nn(C)c2nc(NNC(=O)Nc3cc(Cl)nc(Cl)c3)cc(C(C)C)c12 | inconclusive: 20 µM [inhibitor, single point] | 
12 | CC(C)CN(CCNC(=O)c1cn(C)c2ccc(S(=O)(=O)N3CCCCCC3)cc2c1=O)CC(C)C |  | inactive: -26.3%
13 | Cc1ccc(NC(=O)CN2C(=O)S/C(=C/c3ccc(-c4cc(C(=O)O)ccc4C)o3)C2=O)cc1C | active: 3.55 µM | 
14 | CCOC(=O)c1sc(NC(=O)Nc2ccccc2Cl)cc1C |  | inactive: -8.38%
15 | C=CCN1C(C(=O)c2ccccc2)=C(OC(=O)COc2ccccc2)c2ccccc2S1(=O)=O | inconclusive: 14.1 µM [inhibitor, partial curve, poor fit] | 
16 | CCN(CC)S(=O)(=O)c1cc(C(=O)Nc2cc(Cl)ccc2N2CCN(C)CC2)ccc1Cl | active: 44.7 µM | 
17 | Cc1cccc2cc(C(c3nnnn3CC3CCCO3)N3CCCc4ccccc43)c(=O)[nH]c12 (configuration not stated) | inconclusive: 31.6 µM [inhibitor, single point] | 
18 | COc1ccc2c(c1)CCc1sc(NC(=O)c3ccc(Br)cc3)nc1-2 | inconclusive: 39.8 µM [inhibitor, partial curve, poor fit] | 
19 | CC(C)(C)c1ccc(Oc2nc3ccccn3c(=O)c2/C=C(\C#N)c2nc3ccccc3s2)cc1 | inconclusive: 5.62 µM [inhibitor, full curve] | 
20 | CCc1ccc(NC(=O)CC2C(=O)N(c3ccc(C)cc3)C(=O)N2C2CCCC2)cc1 (configuration not stated) |  | inactive: 11.3%
21 | O=C(Nc1cccnc1)c1cc(F)c(F)cc1Cl | inconclusive: 8.91 µM [inhibitor, single point] | 
22 | COc1cc2c(cc1OC)C(c1ccccc1)CN(C)CC2 (configuration not stated) | inconclusive: 79.4 µM [inhibitor, single point] | 
23 | CC(=O)Nc1ccc(S(=O)(=O)Nc2nc(C)nc3sc4c(c23)CCC4)cc1 |  | inactive: -31.1% [at 12.7 µM]
24 | CCCCCCCCC#CCC#CCC#CCCCC(=O)O |  | inactive: 21.4%

Row | SMILES | Potency | activity, negative = inhibition
25 | C=CCc1ccc(OCC(O)CO)c(OC)c1 (configuration not stated) | inconclusive: 89.1 µM [inhibitor, single point] | 
26 | O=C(Cc1ccc(S(=O)(=O)N2CCOCC2)s1)NCC1CCCCC1 |  | inactive: -22.8% [at 102 µM]
27 | CC1=NNC(=O)C1CCC(=O)N/N=C/c1ccc(Cl)cc1Cl (configuration not stated) | inconclusive: 70.8 µM [inhibitor, partial curve, poor fit] | 
28 | COc1ccccc1CNS(=O)(=O)c1cc2c3c(c1)CCC(=O)N3CCC2 | inconclusive: 89.1 µM [inhibitor, single point] | 
29 | N#C/C(=C\c1ccc(OC(=O)c2ccccn2)cc1)C(N)=O | active: 7.08 µM | 
30 | Cn1ccnc1C(=O)c1cc(SCC(=O)N2CCOCC2)nc2ccccc12 |  | inactive: -7.09% [at 102 µM]
31 | Cc1cnc(C(=O)Nc2ccc(OC(F)(F)F)cc2)cn1 | inconclusive: 56.2 µM [inhibitor, partial curve, poor fit] | 
32 | CCOC(=O)c1c(NC(=O)C(NCCN(C)C)c2ccccc2)sc2c1CCCC2 (configuration not stated) | inconclusive: 79.4 µM [inhibitor, single point] | 
33 | Cc1ccc(NC(=O)CN2C(=O)CSc3ccc(S(=O)(=O)N4CCCCC4)cc32)cc1 |  | inactive: -4.39%
34 | Oc1ccccc1Nc1ccccn1 | inconclusive: 89.1 µM [inhibitor, single point] | 
35 | CCOC(=O)N1CCC(NC(=O)c2cnn(-c3ccc(C)cc3C)c2C2CCN(C(=O)OC(C)(C)C)CC2)CC1 |  | inactive: -5.7%
36 | CC(c1ccccc1)C(Cc1nc2ccccc2[nH]1)c1nc2ccccc2[nH]1 (configuration not stated) | inconclusive: 28.2 µM [inhibitor, partial curve, poor fit] | 
37 | COc1ccc(-n2c(-c3ccc(Br)cc3)nc(=S)c3c2CCCC3)cc1 | inconclusive: 12.6 µM [inhibitor, single point] | 
38 | CCc1ccc(NC(=O)c2cc(C(C)C)on2)cc1 |  | inactive: 32.2% [at 12.7 µM]
39 | O=C(Cc1cccs1)NNC(=S)NC(=O)c1ccccc1 | inconclusive: 1.26 µM [inhibitor, full curve, poor fit] | 
40 | CCCCOc1ccc(C2C(C(=O)c3ccc(C)o3)=C(O)C(=O)N2Cc2ccco2)cc1 (configuration not stated) | inconclusive: 79.4 µM [inhibitor, partial curve, poor fit] | 
41 | CCOC(=O)c1c(C)[nH]c(C)c1S(=O)(=O)N(C)CC(=O)NCc1ccc(F)cc1 |  | inactive: 15.2% [at 102 µM]
42 | Cc1noc(C)c1CSCc1ccc(Cl)cc1 |  | inactive: 0.893% [at 102 µM]
43 | Cc1ccccc1Nc1nnc(SCC(=O)c2ccc(O)cc2O)s1 | active: 8.91 µM | 
44 | Cc1cc(C(=O)N/N=C/c2cc(Br)c(Br)o2)n[nH]1 | active: 10 µM | 
45 | CCN(/N=C/c1ccccc1)c1cc(=O)n(C)c(=O)[nH]1 |  | inactive: -16.6%
46 | O=[N+]([O-])c1ccc(-n2nnnc2-c2ccccc2)c([N+](=O)[O-])c1 |  | inactive: -6.3%
47 | CCCCOc1cccc(C(=O)Nc2ccc(N3CCN(CC)CC3)cc2)c1 |  | inconclusive: -72% [inhibitor]
48 | CCc1ccc(-c2nc(CS(=O)CC(=O)NC3CC3)c(C)o2)cc1 (configuration not stated) | inconclusive: 89.1 µM [inhibitor, single point] | 

Row | SMILES | Potency | activity, negative = inhibition
49 | COc1ccc(N2CCN(C(=O)c3cccs3)CC2)cc1 | active: 50.1 µM | 
50 | CCOC(=O)Cn1cnc2scc(-c3ccc(C)c(C)c3)c2c1=O | inconclusive: 89.1 µM [inhibitor, single point] | 
51 | COc1ccc(OC)c(NC(=O)c2cnc(N3CCCCC3)c3ccccc23)c1 |  | inactive: -4.38%
52 | CCCC(=O)NC(c1ccc(OC)cc1)c1c(O)ccc2ccccc12 (configuration not stated) |  | inactive: -30.8% [at 2.33 µM]
53 | Nc1nonc1C(=O)NCCN=Cc1cc(Cc2ccccc2)cc(Br)c1O |  | inactive: -3.06% [at 102 µM]
54 | S=C(N/N=C/c1ccco1)NC1CC2CCC1C2 (configuration not stated) | inconclusive: 89.1 µM [inhibitor, single point] | 
55 | CNC(=S)N(CCc1c(C)[nH]c2ccc(F)cc12)Cc1ccco1 | active: 70.8 µM | 
56 | CN(c1nc(-c2ccccc2)cs1)C1CCS(=O)(=O)C1 (configuration not stated) |  | inconclusive: -61.4% [inhibitor]
57 | COC(=O)CSC1=C(C#N)C(c2ccc3c(c2)OCO3)C2=C(CCCC2=O)N1 (configuration not stated) | inconclusive: 3.16 µM [inhibitor, single point] | 
58 | CC(=O)CCS(=O)(=O)c1ccc(C)c(C)c1 | inconclusive: 0.316 µM [inhibitor, full curve, poor fit] | 
59 | CN(C)c1ccc2c(c1)OC(N)=C(C#N)C2c1cccc(F)c1 (configuration not stated) | active: 44.7 µM | 
60 | CCCOc1ccc(N2C(=O)CC(SCc3nc4ccccc4[nH]3)C2=O)cc1 (configuration not stated) | inconclusive: 39.8 µM [inhibitor, partial curve, poor fit] | 
61 | CCOC(=O)c1cc(C)nc(S(C)(=O)=O)c1C#N | inconclusive: 79.4 µM [inhibitor, partial curve, poor fit] | 
62 | O=[N+]([O-])c1ccc(N2CCCCC2)cc1SCCO | inconclusive: 35.5 µM [inhibitor, partial curve, poor fit] | 
63 | COc1ccccc1C(=O)OCc1cc(=O)n2nc(-c3cccs3)sc2n1 |  | inactive: 7.4%
64 | CCc1nnc(NC(=O)c2cccs2)s1 | inconclusive: 89.1 µM [inhibitor, single point] | 
65 | Cc1sc2ncn(CC(=O)N3CCCC(C)C3)c(=O)c2c1S(=O)(=O)N1CCCCC1 (configuration not stated) |  | inactive: -3.87% [at 102 µM]
66 | CCn1cc(Br)c(C(=O)Nc2nccs2)n1 |  | inconclusive: -83% [inhibitor]
67 | Cc1noc(/C=C/c2ccco2)c1S(=O)(=O)N1CCC(C(=O)Nc2ccc(Cl)cn2)CC1 |  | inactive: -13.2%
68 | CCNC(=O)NC(=O)C(C)Sc1nc2cc(C(=O)OC)ccc2c(=O)n1-c1ccccc1 (configuration not stated) |  | inactive: -0.893% [at 102 µM]
69 | Cc1nn(C)cc1CNC(=O)C1C2CCC(O2)C1C(=O)O (configuration not stated) | inconclusive: 79.4 µM [inhibitor, partial curve, poor fit] | 
70 | COc1cccc(-n2nnnc2S(C)(=O)=O)c1 | inconclusive: 89.1 µM [inhibitor, single point] | 
71 | COC(=O)c1ccc(NS(=O)(=O)c2ccc3[nH]c4c(c3c2)CCCC4)cc1 | inconclusive: 15.8 µM [inhibitor, partial curve, poor fit] | 
72 | NC(=O)CC(NC(=O)c1cccc(Br)c1)c1ccc(NC2CCC2)c([N+](=O)[O-])c1 (configuration not stated) | inconclusive: 89.1 µM [inhibitor, single point] | 

— PubChem BioAssay AID504332 (National Center for Advancing Translational Sciences (NCATS), 2011)
